In article PMC9669019, “Molecular basis for integrin adhesion receptor binding to p21-activated kinase 4 (PAK4)” (Communications Biology, 2022) one finds binding data, which are given here for three molecules.

Amino acid sequences for entries named in this document (tags omitted). Chains listed by the source or under a name are the forms on record and can include a tag or linker. Residues count along the entry.
GST-tagged full-length integrin β5 tail (residues 743–799) (P18084, residues 743-799): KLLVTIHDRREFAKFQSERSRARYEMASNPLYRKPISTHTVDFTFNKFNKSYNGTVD
GST-fusion of integrin β5 residues 743–774 (P18084, residues 743-774): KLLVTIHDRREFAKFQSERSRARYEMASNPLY

These are yes or no findings as the source states them, for the method shown. For some assays here: In cells and extracts the contact can be indirect. Some entries that bind do so weakly or less than the wild type. For some assays here: Where a sequence is shown, tags or fusion partners need not be part of it.

Test [1] deals with GST-tagged full-length integrin β5 tail (residues 743–799) (UniProt P18084). Put plainly: pull-down; GST or GST-fusion constructs of integrin β5 pull down GFP-PAK4-cat or GFP-PAK4-Δcat expressed in whole cells; quantified; only the target purified.
Test [2] deals with T1, PAK4 catalytic domain D440N/S474E (PAK4cat^D440N,S474E) (human) (UniProt O96013).
T1 sequence: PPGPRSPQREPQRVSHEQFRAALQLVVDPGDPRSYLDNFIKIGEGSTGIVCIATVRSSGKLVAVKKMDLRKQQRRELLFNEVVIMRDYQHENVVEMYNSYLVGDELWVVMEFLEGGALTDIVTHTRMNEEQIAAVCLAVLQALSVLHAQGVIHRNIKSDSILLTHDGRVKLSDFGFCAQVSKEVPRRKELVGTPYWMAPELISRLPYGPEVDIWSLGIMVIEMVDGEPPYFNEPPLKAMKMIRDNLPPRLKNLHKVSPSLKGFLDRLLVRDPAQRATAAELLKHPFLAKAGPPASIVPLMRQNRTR
Put plainly: crystal structure; PAK4cat co-crystallised with 2 mM integrin β5 760–770 peptide; 1 mM peptide soaked into PAK4cat D440N,S474E crystals; 1 mM AMP-PNP, 5 mM MgCl2; both purified.

The target in test [3] is PAK4 catalytic domain, purified recombinant (PAK4-cat) (human) (UniProt O96013). Described as above.
In test [4] the target is GST-fusion of integrin β5 residues 743–774 (UniProt P18084). Put plainly: pull-down; GST or GST-fusion constructs of integrin β5 pull down GFP-PAK4-cat or GFP-PAK4-Δcat expressed in whole cells; quantified; only the target purified.

B1: GFP-PAK4-Δcat (N-terminal regions of PAK4, residues 1–301) (domain or fragment, UniProt O96013-1 1-301)
chain: MFGKRKKRVEISAPSNFEHRVHTGFDQHEQKFTGLPRQWQSLIEESARRPKPLVDPACITSIQPGAPKTIVRGSKGAKDGALTLLLDEFENMSVTRSNSLRRDSPPPPARARQENGMPEEPATTARGGPGKAGSRGRFAGHSEAGGGSGDRRRAGPEKRPKSSREGSGGPQESSRDKRPLSGPDVGTPQPAGLASGAKLAAGRPFNTYPRADTDHPSRGAQGEPHDVAPNGPSAGGLAIPQSSSSSSRPPTRARGAPSPGVLGPHASEPQLAPPACTPAAPAVPGPPGPRSPQREPQRVSH
Turning to B1, in test [1], the binding entry is “no binding”.

Take ERSRARYEMAS (N-terminal acetyl, C-terminal amide) [integrin β5 peptide, residues Glu760-Ser770]: the binding result in test [2] and in test [3] was “binds” in each case.

B2: GFP-PAK4-cat (PAK4 kinase domain, residues 302–591) (domain or fragment, UniProt O96013-1 302-591)
chain: EQFRAALQLVVDPGDPRSYLDNFIKIGEGSTGIVCIATVRSSGKLVAVKKMDLRKQQRRELLFNEVVIMRDYQHENVVEMYNSYLVGDELWVVMEFLEGGALTDIVTHTRMNEEQIAAVCLAVLQALSVLHAQGVIHRDIKSDSILLTHDGRVKLSDFGFCAQVSKEVPRRKSLVGTPYWMAPELISRLPYGPEVDIWSLGIMVIEMVDGEPPYFNEPPLKAMKMIRDNLPPRLKNLHKVSPSLKGFLDRLLVRDPAQRATAAELLKHPFLAKAGPPASIVPLMRQNRTR
On to B2, for which the binding result in test [4] and in test [1] was “binds” each time.
